Here are results for 97 molecules from PubChem BioAssay AID493035 (The Scripps Research Institute Molecular Screening Center, 2011).

Among all 2,000 compounds or so, about 45 (2%) were called active.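 The calls were made as follows: active = inhibition above the mean of all tested compounds plus 3 SD (cut at about 49% in these data); inactive = the rest.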 The list shows a part of the results.

In the assay the target is Perilipin-5 (Homo sapiens) + 1-acylglycerol-3-phosphate O-acyltransferase ABHD5 (Homo sapiens) (UniProt Q00G26+Q8WTS1). Kind of assay: blockers of ABHD5 binding to perilipin-5 – cell lysate, split luciferase complementation, luminescence, NIH validation set, pilot screen (AID 493035).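 Also: 0% = DMSO only wells while the 100% control is not stated.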 The settings on record: split G. princeps luciferase complementation, lysates, 4 h; at 7.9 µM, active compounds read high.
Chain of UniProt Q00G26 (Q00G26 whole entry, looked up): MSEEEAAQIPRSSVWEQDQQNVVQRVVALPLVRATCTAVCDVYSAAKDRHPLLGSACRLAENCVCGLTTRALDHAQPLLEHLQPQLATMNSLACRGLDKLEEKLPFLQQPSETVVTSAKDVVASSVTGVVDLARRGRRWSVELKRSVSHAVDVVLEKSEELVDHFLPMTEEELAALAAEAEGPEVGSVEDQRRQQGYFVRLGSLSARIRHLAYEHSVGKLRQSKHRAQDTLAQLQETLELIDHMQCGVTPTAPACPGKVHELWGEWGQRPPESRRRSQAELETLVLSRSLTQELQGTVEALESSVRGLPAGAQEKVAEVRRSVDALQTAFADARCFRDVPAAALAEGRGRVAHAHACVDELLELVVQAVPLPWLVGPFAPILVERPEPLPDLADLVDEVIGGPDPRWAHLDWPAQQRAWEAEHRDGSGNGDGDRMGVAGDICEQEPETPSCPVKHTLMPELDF
Chain of UniProt Q00G26 (Q8WTS1 whole entry, looked up): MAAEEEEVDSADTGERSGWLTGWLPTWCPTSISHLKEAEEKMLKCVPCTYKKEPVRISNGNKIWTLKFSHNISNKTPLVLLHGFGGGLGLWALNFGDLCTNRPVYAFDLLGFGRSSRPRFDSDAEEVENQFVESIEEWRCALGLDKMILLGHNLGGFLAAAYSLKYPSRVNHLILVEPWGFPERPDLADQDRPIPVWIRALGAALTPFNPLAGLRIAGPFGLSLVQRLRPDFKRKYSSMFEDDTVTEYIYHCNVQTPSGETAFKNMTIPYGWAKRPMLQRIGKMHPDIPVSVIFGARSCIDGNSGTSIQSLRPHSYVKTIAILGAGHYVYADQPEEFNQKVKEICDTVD
A word on the inhibition: it is the drop in the measured response relative to a control, in per cent. Turning to `COc1cc2c(cc1OC)CN(Cc1ccc(C)s1)CC2`, the inhibition is inactive: 11%.

For `CC(C)C1Cc2[nH]c(=O)c(C(=O)O)cc2CO1` (configuration not stated), the inhibition is inactive: -2.8%.

As to `CC1(C)Cc2nc3sc4c(=O)n(CC(N)=O)cnc4c3cc2CO1`, the inhibition is inactive: -1.38%.

With `NC[C@H]1O[C@H](O[C@H]2[C@H](O)[C@@H](O[C@H]3O[C@H](CO)[C@@H](O)[C@H](N)[C@H]3O)[C@H](N)C[C@@H]2N)[C@H](N)C[C@@H]1O`, the inhibition is inactive: -14%.

As for `COc1cc(-c2nnc(-c3cccs3)o2)cc(OC)c1OC`, the inhibition is inactive: -1.78%.

On to `Cc1ncc(CN2CCC(CO)(CCc3ccccc3)CC2)s1`, for which the inhibition is inactive: -0.2%.

With `O=C(/C=C/c1ccccc1)NCC1(c2ccccc2)CCOCC1`, the inhibition is inactive: -8.05%.

Consider `CC1(C)C2CCC1(C)C(OCC[N+](C)(C)CC(=O)OC1CCCCC1)C2` (configuration not stated), for which the inhibition is inactive: -0.98%.

As for `Nc1nc2c(ncn2COC(CO)CO)c(=O)[nH]1`, the inhibition is inactive: -2.3%.

For the molecule `CCOc1ccc(N2C(=O)CNC2=S)cc1`, the inhibition is inactive: -13.8%.

With `CC(=O)OC[C@H]1O[C@@H](Sc2cccc3cccnc23)[C@H](OC(C)=O)[C@@H](OC(C)=O)[C@H]1OC(C)=O`, the inhibition was inactive: 8.8%.

`CC(C)CCNC(=O)[C@H](CC(C)C)NC(=O)[C@H]1O[C@@H]1C(=O)O`: the inhibition is inactive: 4.43%.

As to `CNCCc1ccccn1`, the inhibition is inactive: 2.26%.

Regarding `CC(C)CC(NC(=O)c1cccc(Cl)c1)C(=O)O` (configuration not stated), the inhibition is inactive: -11%.

In the case of `Cc1csc(N)n1`, the inhibition was inactive: 5.92%.

On to `COc1ccc(O)c(C2=Nc3ccccc3N=C(c3ccccc3)C2)c1`, for which the inhibition is inactive: -11.4%.

`CCCNC(=O)NS(=O)(=O)c1ccc(Cl)cc1`: the inhibition is inactive: 0.67%.

Regarding `CC(=O)O[C@]1(C(C)=O)CC[C@H]2[C@@H]3C=C(Cl)C4=CC(=O)CC[C@]4(C)[C@H]3CC[C@@]21C`, the inhibition was inactive: 5.85%.

`Cc1cc(C(=O)NC(CC(C)C)C(=O)O)cc(C)c1[N+](=O)[O-]` (configuration not stated): the inhibition was inactive: 2.44%.

As to `NC(N)=NC(N)=Nc1ccc2ccccc2c1`, the inhibition was inactive: -9.4%.

For the molecule `COc1ccc(CCn2c(C)cc3c(c2=O)C(c2ccncc2)C(C#N)=C(N)O3)cc1OC` (configuration not stated), the inhibition is inactive: -4.13%.

With `COc1ccc(C(=O)N2c3cc4c(cc3C(C)=CC2(C)C)OCO4)cc1`, the inhibition is inactive: -4.53%.

Take `CC(C)CN(C)Cc1c(C(=O)N2CCc3ccccc3C2)nc2ccc(Cl)cn12`: the inhibition is inactive: 1.64%.

As for `CC1(C)CC(NCc2ccccc2)CCO1` (configuration not stated), the inhibition was inactive: -3.35%.

As to `CCc1c(C(C)=O)oc2ccc3c(C)cc(=O)oc3c12`, the inhibition is inactive: -7.45%.

On to `O=C1c2ccccc2N2C(=O)c3ccccc3C2N1Cc1ccco1` (configuration not stated), for which the inhibition was inactive: 32.5%.

For `CC12CN3CC(C)(CN(C1)C3c1ccc([N+](=O)[O-])o1)C2` (configuration not stated), the inhibition is inactive: -0.18%.

Turning to `COc1ccc(CCN2C(=O)CSC2c2ccc(OC)c(OC)c2)cc1OC` (configuration not stated), the inhibition was inactive: -0.94%.

Take `Clc1ccc2c(c1)CCc1cccnc1C2=C1CCNCC1`: the inhibition was inactive: -8.07%.

Consider `CC(=O)[C@@]1(O)CC[C@H]2[C@@H]3CCC4=CC(=O)CC[C@]4(C)[C@H]3CC[C@@]21C`, for which the inhibition is inactive: 0.76%.

With `CC(C)CC(=O)N(Cc1ccc(F)cc1)C1CCS(=O)(=O)C1` (configuration not stated), the inhibition was inactive: 1.18%.

For the molecule `COc1ccccc1NC(=O)Cn1c(C)cc(=O)c2cccc(OC)c21`, the inhibition was inactive: 6.78%.

Consider `O=C(/C=C/c1ccc(Cl)cc1)NCCc1ccccc1`, for which the inhibition is inactive: 1.1%.

As for `COc1ccc(-c2nc3c(=O)n(C)c(=O)[nH]c3n2CCc2ccccc2)cc1`, the inhibition is inactive: 0.59%.

With `CCN(CC)C(=O)c1ccc(O)c(OC)c1`, the inhibition is inactive: 1.69%.

Regarding `CCC(C(=O)Nc1ccc2c(c1)OCCO2)c1ccccc1` (configuration not stated), the inhibition was inactive: 0.82%.

In the case of `Cc1ccc(C2CC(=O)C(C=NCCN3CCN(C(=S)Nc4ccccc4)CC3)=C(O)C2)cc1` (configuration not stated), the inhibition is inactive: -7.35%.

For `COc1ccc(C2C(C#N)=C(N)Oc3cc(C)[nH]c(=O)c32)c(OC)c1OC` (configuration not stated), the inhibition was inactive: -1.64%.

On to `CCC1(c2ccccc2)C(=O)NCNC1=O`, for which the inhibition was inactive: 7.74%.

Take `O=C(CSCc1ccccc1)NCCCN1CCOCC1`: the inhibition is inactive: -11.4%.

In the case of `CCOc1ccc(NC(=O)N[C@@H](CCSC)C(=O)OC)cc1`, the inhibition is inactive: -13.2%.

As for `Cc1oc2ccc(OC(=O)c3cccs3)cc2c1C(=O)OC(C)C`, the inhibition is inactive: 7.07%.

In the case of `C[C@]12CCC(=O)C=C1CC[C@@H]1[C@@H]2CC[C@@]2(C)[C@H]1CC[C@]2(O)C(=O)CO`, the inhibition is inactive: 2.63%.

As for `COc1ccc(C2NCCC3(O)CCCCC23)c(OC)c1OC` (configuration not stated), the inhibition was inactive: -0.22%.

Turning to `c1ccc(-c2ccc(C(c3ccccc3)n3ccnc3)cc2)cc1` (configuration not stated), the inhibition is inactive: 8.03%.

In the case of `CN(C)CCC(c1ccc(Br)cc1)c1ccccn1` (configuration not stated), the inhibition is inactive: -8.69%.

`CC(=O)NC1C(OCc2ccccc2)OC(COC(C)=O)C(OC(C)=O)C1OC(C)=O` (configuration not stated): the inhibition was inactive: 8.83%.

Regarding `Nc1cnn(C2OC(CO)C(O)C2O)c(=O)n1` (configuration not stated), the inhibition is inactive: -8.82%.

As for `Cc1ccc(OCc2nc(-c3cccnc3)no2)cc1C`, the inhibition is inactive: 6.45%.

For `O=C(OCC1OC2OC3(CCCCC3)OC2C2OC3(CCCCC3)OC12)c1ccccc1` (configuration not stated), the inhibition was inactive: -4.03%.

With `c1ccc2c3c(c(CN4CCCCC4)cc2c1)COC3`, the inhibition was inactive: -1.55%.

In the case of `Cc1ccc(CSCC(=O)N2CCCC2)cc1`, the inhibition is inactive: 2.89%.

On to `Cc1cc(-c2nn(-c3ccccc3F)cc2CN2CCC(O)CC2)c(C)s1`, for which the inhibition is inactive: -1.57%.

Take `OC(COCc1ccccc1)CN1CCN(Cc2ccc3c(c2)OCO3)CC1` (configuration not stated): the inhibition was inactive: -8.73%.

As to `O=C(NCC1CCCO1)c1ccc(OC2CCN(C(=O)C3CC3)CC2)cc1` (configuration not stated), the inhibition was inactive: 4.94%.

Turning to `O=C(O)C1CCN(C(=O)COc2ccc3c4c(c(=O)oc3c2)CCC4)CC1`, the inhibition is inactive: -5.81%.

As to `CC1(C)CC(C(CC(=O)N2CCCC2)Cc2ccccc2)CCO1` (configuration not stated), the inhibition was inactive: -10.3%.

As to `CC1=NS(=O)(=O)c2cc(Cl)ccc2N1`, the inhibition was inactive: -7.28%.

In the case of `CC(C)NCC(O)COc1ccc(CC(N)=O)cc1` (configuration not stated), the inhibition was inactive: 2%.

Turning to `CCOC(=O)[C@H]1O[C@@H]1C(=O)N[C@@H](CC(C)C)C(=O)NCCC(C)C`, the inhibition was inactive: -12%.

For the molecule `CC[C@H](CO)NCCN[C@H](CC)CO`, the inhibition is inactive: 2.49%.

Turning to `Cc1ccccc1NC(=O)C1(C)Cc2ccccc2C(=O)O1` (configuration not stated), the inhibition was inactive: -1.99%.

Regarding `CCN(CC)CCOC(=O)C(c1ccccc1)c1ccccc1`, the inhibition is inactive: -1.8%.

`OC(CCCN1CCCCC1)(c1ccccc1)c1ccccc1`: the inhibition was inactive: 7.85%.

As for `COc1ccccc1NC(=O)C12CCC(C)(C(=O)C1)C2(C)C` (configuration not stated), the inhibition is inactive: 2.61%.

As for `C[C@]12CC[C@@H]3c4ccc(OS(=O)(=O)O)cc4CC[C@H]3[C@@H]1CCC2=O`, the inhibition is inactive: -0.42%.

As for `COC1(C)CC2C(CC1OC(=O)c1cc([N+](=O)[O-])cc([N+](=O)[O-])c1)C2(C)C` (configuration not stated), the inhibition was inactive: 22.8%.

Consider `COc1ccc(CCn2c(C)nc3c(c(=O)c4ccccc4n3C)c2=O)cc1`, for which the inhibition is inactive: 11%.

As for `Cc1ccc(S(=O)(=O)NC(=O)NN2CCCCCC2)cc1`, the inhibition is inactive: -4.11%.

Regarding `COc1ccc(C=O)c(OC)c1`, the inhibition was inactive: -0.72%.

Take `Cc1ccsc1/C=C/C1=NCCCN1C`: the inhibition was inactive: 0.45%.

For the molecule `Fc1cc(F)cc(NC(=S)NCCCN2CCOCC2)c1`, the inhibition was inactive: 1.08%.

With `CCCCC[C@H](O)/C=C/[C@@H]1[C@@H](C/C=C\CCCC(=O)OC)[C@@H](O)C[C@H]1O`, the inhibition is inactive: -13.5%.

`Cn1nc(-c2ccccn2)nc2c(=O)n(C)c(=O)nc1-2`: the inhibition is inactive: 10.9%.

For the molecule `CCN(CC)CCNc1ccc(CO)c2sc3ccccc3c(=O)c12`, the inhibition is inactive: 8.06%.

As for `Cc1ccc(O)c(CCc2ccccc2)n1`, the inhibition was inactive: -5.08%.

Turning to `CSc1ccc2c(c1)N(CCC1CCCCN1C)c1ccccc1S2` (configuration not stated), the inhibition is inactive: -4.78%.

On to `Cc1cc(-c2nn(-c3ccccc3F)cc2CN2CCCC(O)C2)c(C)s1` (configuration not stated), for which the inhibition is inactive: -7.93%.

For the molecule `OCCN(Cc1nc(-c2ccc3c(c2)OCO3)no1)Cc1cccs1`, the inhibition was inactive: 4.31%.

As to `Cc1cc(-c2ccccc2)nnc1NCCN1CCOCC1`, the inhibition was inactive: -10.7%.

`COc1cc2c(cc1OC)CN(C(=O)c1ccc(S(=O)(=O)N(C)c3ccccc3)cc1)CC2`: the inhibition was inactive: 6.35%.

For the molecule `CCOc1ccccc1C(=O)NCCC(=O)O`, the inhibition was inactive: -0.11%.

`OC[C@H]1O[C@@H](n2cnc3c(Nc4ccccc4)ncnc32)[C@H](O)[C@@H]1O`: the inhibition is inactive: -6.85%.

As for `C=CCNC(=S)N1CCc2c([nH]c3ccccc23)C1C` (configuration not stated), the inhibition was inactive: -7.62%.

`O=C(OCCN1CCOCC1)c1cccs1`: the inhibition was inactive: 5.45%.

With `O=c1nc2sc3ccccc3n2c(=O)n1-c1ccc(Cl)cc1`, the inhibition is inactive: 5.72%.

For `CCCC(CCC)C(=O)OC1C[C@H]2CC[C@@H](C1)[N+]2(C)C` (some centres not stated), the inhibition was inactive: -9.28%.

For the molecule `c1ccc(Cn2ncc3c(Nc4ccccc4)ncnc32)cc1`, the inhibition is inactive: -6.21%.

Consider `O=C(O)CCCCCN1C(=O)C(=O)/C(=C(/O)c2ccccc2)C1c1ccccc1` (configuration not stated), for which the inhibition is inactive: -14.1%.

On to `Cn1c2c(c(=O)[nH]c1=O)C(c1ccc(O)cc1)C1=C(N2)c2ccccc2C1=O` (configuration not stated), for which the inhibition is inactive: 5.88%.

Regarding `O=c1c2ccccc2nc2n1-c1ccccc1CCC2`, the inhibition is inactive: -0.31%.

Consider `CN(C)CCOCCOc1ccc(Cl)cc1Br`, for which the inhibition is inactive: -2.82%.

As for `CCc1ccc(CN(C)Cc2nc(Cc3ccccc3)no2)nc1`, the inhibition is inactive: 9.41%.

For the molecule `CC(COc1ccccc1)NC(C)C(O)c1ccc(O)cc1` (configuration not stated), the inhibition is inactive: -1.77%.

As for `CC(=O)Nc1nc(CCC(C)C)cc2c1c(=O)oc1ccccc12`, the inhibition is inactive: -9.8%.

For the molecule `CC(C)(C)c1ccc(C(O)CCCN2CCC(C(O)(c3ccccc3)c3ccccc3)CC2)cc1` (configuration not stated), the inhibition is inactive: -14.5%.

For `Cc1nonc1CN(C)C(=O)c1ccc(OC2CCN(Cc3ccccn3)CC2)cc1`, the inhibition was inactive: -4.67%.
